Test results taken from the supplement of paper PMC10126150.
Sequences with one replicate were seen in a single cluster, so their values are uncertain.

System: ATP
Test: switch fluorescence ratio, 500 uM ATP over buffer (Cy3 cluster intensity, sum of 5 cycles each) (fold (ratio)); higher = stronger signal-on switching upon ATP binding; sequences stand for … in TCGTCGGCAGCGTCAGATGTGTATAAGAGACAGTTTTTTTTTTTTTTTTTTTTTTTTT…TC
Details: aptamer strand: ATP DNA aptamer (quencher-CACCTGGGGGAGTATTGCGGAGGAAGG + anchor), 100 nM annealed; ATP concentration: 500 uM; one replicate
In short: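 Clusters with intensities outside 100-1000 RFU were excluded. The remaining Cy3-labelled switching-strand clusters on a modified Illumina MiSeq flow-cell had been annealed to 100 nM quencher-labelled ATP aptamer and imaged in selection buffer, then after 15 min with 500 uM ATP at 22 °C, for five cycles separated by NaOH stripping and re-annealing. The fluorescence ratio, averaged per switch-domain sequence, is each cluster's summed target-cycle Cy3 intensity over its summed buffer-cycle Cy3 intensity.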
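Note: ATP exposure 15 min at 22 °C before imaging.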

Row | Sequence | switch fluorescence ratio
1 | CCGCTTTAAA | 1.66
2 | ATGTAGTCCG | 0.993
3 | TGATAAGTAG | 0.991
4 | TTTGAGGATC | 0.982
5 | ATATTCTATG | 0.985
6 | CCACTAACTT | 1.15
7 | ATCAACAGAA | 1.04
8 | AGAGGATAGG | 0.983
9 | AGATATTGCG | 0.989
10 | CTTCGAATTC | 1.8
11 | ATCGTAGTG | 0.972
12 | TTACATTATG | 1.01
13 | TTCCTCGTCG | 0.913
14 | CTGTTTTCAC | 0.96
15 | AGTGAAGTGC | 0.951
16 | GCCAAGGGGA | 1
17 | CTATATTGAA | 1.05
18 | CCAGGATTTT | 0.993
19 | GTTCTTTGAG | 0.938
20 | CCGTGTCTA | 1.05
21 | GGTTGATAGC | 1.01
22 | TATGTTGGGA | 1.02
23 | TCCTGTGCGG | 1.31
24 | AATTGGTGAG | 1.03
25 | CGTTAGTTAA | 0.991
26 | TTTCTTCATC | 1.04

Row | Sequence | switch fluorescence ratio
27 | CACGGTTGGC | 1.05
28 | GTGCTAAATG | 0.957
29 | GCATGTTTGC | 1.01
30 | AGGAGCTAAA | 0.973
31 | TATAGGGTTC | 0.971
32 | TACAAGGGG | 1.04
33 | TCGAACGGCC | 1.07
34 | GATTGACTTC | 0.995
35 | ACGATGTTGT | 1.02
36 | CTAATCGGGT | 1
37 | GCACGATTAA | 1.05
38 | TCTCGCCCAC | 1.74
39 | TAATGTGCGC | 0.94
40 | CTTTGAGGAT | 0.985
41 | TTGAAGAGGG | 1.39
42 | GCACTGCCCA | 1.06
43 | CTCTAGATGT | 1.05
44 | AGCGAGCATT | 1.01
45 | AATCAACAGC | 1.03
46 | TTAGTCTAGC | 1.01
47 | GGCAGATTAC | 1.13
48 | GCTGGTTGTG | 1
49 | CAAAATGGGC | 0.994
50 | ATTTTTTGCA | 0.994
51 | GGTCGGAATT | 0.977
52 | ACTTTTGGC | 1.02

Row | Sequence | switch fluorescence ratio
53 | TCCCTAGATC | 1.08
54 | TTCGGATATC | 1.05
55 | ATTCATAGGG | 0.986
56 | GGTATCTATA | 1.03
57 | CTATCATTC | 1.01
58 | TCCCCGAAG | 1.24
59 | CCAAATTCT | 1.02
60 | ACATTCTGAG | 1.02
61 | AGCTGTGAAT | 0.963
62 | GTCGCGCCGA | 0.976
63 | GCTGGTTCGC | 0.996
64 | TCTCTGTAGC | 1.44
65 | TTCACAGAGA | 1.03
66 | CATCACCTGA | 1.01
67 | AAAGTTTCAA | 1.01
68 | ATCTTCCCGT | 1.15
69 | CTCCGTATTC | 1.67
70 | CCACGGAGAC | 2.71
71 | CATCGGTCGG | 1
72 | AGTGGAACGC | 0.997
73 | TTATGGGGCA | 1.07
74 | ATATCATTTG | 1.01
75 | TAAATTCAAA | 0.967
76 | TAATGTGCCT | 1.05
77 | CTTCTAGGGC | 0.96
78 | AGGTTACTA | 1.01

Row | Sequence | switch fluorescence ratio
79 | GACGATAACT | 1.16
80 | CACGGAACGG | 1.06
81 | CTAGTGTTCT | 0.961
82 | GGATCCCCCG | 1.07
83 | GTCCACCTGG | 1.33
84 | TCTGAGGTGA | 1.09
85 | GGCACCGGAT | 1.02
86 | AAGATTCGGG | 0.999
87 | TTAGTCGTCA | 0.961
88 | TAGGGTAGTC | 1.02
89 | CGTCATATAT | 1.13
90 | ATGAACTCTT | 0.969
91 | ACGTCCACGG | 1.16
92 | CTGCCCGCTC | 1.8
93 | GTGTTCCTGG | 1
94 | TGGATCCCGA | 0.952
95 | TTCTTCGCGG | 1.08
96 | GTTGTAGAGG | 0.999
97 | TCGTCACTCT | 0.995
98 | CGTGGTGTAC | 1.08
99 | ATAAGGAACA | 0.962
100 | GGGTGCGGG | 0.989
101 | CTAGGGTCCG | 1.01
102 | AAAATTTCCC | 1.06
103 | CCTTCGTGTT | 3.26
104 | GTGTGGAACT | 0.994

Row | Sequence | switch fluorescence ratio
105 | AGGCCCCAGA | 0.97
106 | TGAAGAGCAA | 1.76
107 | GAAGGCAGT | 0.999
108 | TTAAAGGGAC | 1.01
109 | CTAACCGATC | 1.56
110 | TCCGGGGATC | 1.08
111 | TGGACGCTTC | 1.24
112 | GTAAGTTCTC | 1
113 | ACTTATCTGA | 1.02
114 | TTGTTAGGTA | 0.986
115 | GTAGCTCAAA | 1.05
116 | ACCTCGGTGT | 1.07
117 | TGCGAA | 1.01
118 | GCCGTAGGTG | 1.07
119 | TTATCCTCGT | 0.956
120 | GTTGTAGGTA | 1.04
121 | AAGCGATAGC | 1.03
122 | TACGGTGTTG | 1.01
123 | ACGCCAA | 1.45
124 | ACGAATTATT | 1.07
125 | ATCTGGGGAT | 1.03
126 | AGTGGCTCTG | 1.01
127 | ATACGGGTCC | 1
128 | TTTACACCGT | 1.02
129 | TCAATGGA | 1.03
130 | TTCTTTCCGA | 1.09

Row | Sequence | switch fluorescence ratio
131 | AGTATGGCTC | 0.942
132 | ATAGTTGGCT | 0.965
133 | GGTGATTTAG | 1.2
134 | TCCGTG | 2.29
135 | GGAGTATTTG | 0.971
136 | TACTAAGTA | 1.05
137 | TCACCCTATT | 1.09
138 | AAGAAATGCT | 1.08
139 | TCGACACGTA | 1.09
140 | TTGGCTTAGC | 0.987
141 | ATGTCGGGAA | 0.977
142 | AAAGGGAC | 1.03
143 | ATGCCTGACG | 1.13
144 | CAGGTGGTCG | 1.05
145 | TGATACCTCA | 1.04
146 | TCGCTACATA | 1.14
147 | CGGCAGTTGT | 1.05
148 | TACTGAAATT | 1.03
149 | TCAAATAAA | 0.982
150 | TAGTATTGAC | 0.978
151 | AACTGGCTTG | 1
152 | AGCGCTTTAA | 1.03
153 | GGAACCCCCA | 1.23
154 | CTGATTAGGT | 0.936
155 | CGGATGAATA | 1.01
156 | ATTAATGTTT | 1

Row | Sequence | switch fluorescence ratio
157 | CACTATTTCT | 1.01
158 | CAAATGAGG | 0.935
159 | TCGCGTGTGA | 1
160 | GTGGTGATCT | 1.01
161 | GCCGGCTCGA | 0.943
162 | GTCCCTACTG | 1.01
163 | CGTCTCTCAA | 1.24
164 | TGGTCACGCT | 0.997
165 | GGATTCTTAA | 1.05
166 | GATTATCTTA | 0.992
167 | CTCGTTATTA | 0.983
168 | CGATCGCGTA | 1.14
169 | GTCTGCCTCT | 0.985
170 | ATAATGACCT | 1.47
171 | GCTAATCGCC | 1.08
172 | TGATCGTAGG | 0.952
173 | ATGGGAGCAC | 0.977
174 | TATAGGACCG | 1.03
175 | ATCTTATGTG | 1.03
176 | CCACGATTTG | 0.986
177 | TCTGTTCGAT | 0.966
178 | TAGGGGGCGA | 0.991
179 | GTAGCATTAG | 4.25
180 | TTTATTCTCG | 1.05
181 | TAGGGTAGA | 1.04
182 | GGTCCAGTAC | 1.09

Row | Sequence | switch fluorescence ratio
183 | TAGACCAGCT | 1.04
184 | ACCCATTTGA | 1.29
185 | CACCCGAGTG | 1.46
186 | AATTTAGGTA | 1.02
187 | GCGTGGGCTT | 1.01
188 | GGGCGTGCTA | 1.01
189 | ATTGGCACAC | 1.04
190 | GAACTCTTGG | 1.01
191 | ACGAAGGCCT | 0.975
192 | ACGAGGAGTA | 0.962
193 | TGGACTAAGC | 1
194 | GGAGGACGT | 1.06
195 | GATGGTGGGT | 1.02
196 | TTATACTACA | 1.09
197 | CAAAGATGAG | 0.984
198 | TGACGGCTGA | 1.04
199 | GCCGTGTTTG | 1.04
200 | GTATGACTCC | 1.02
201 | TGATATCTGC | 1.01
